Assay results taken from the RNAGym collection of RNA variant scans (doi:10.1093/nar/gkz1192).
The source gives no read counts; variants with many changes may rest on few reads.

B1: CPEB3 Ribozyme (parent)
chain: UAACAGGGGGCCACAGCAGAAGCGUUCACGUCGCAGCCCCUGUCAGAUUCUGGUGAAUCUGCGAAUUCUGCUGUAUAUCUC

Variants of: B1
Assay: self-cleavage, relative activity (ratio to wild type); higher = more cleavage; in vitro, sequencing
Method in brief: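 For each CPEB3 ribozyme variant, relative activity is its cleaved/total read fraction divided by the unmutated ribozyme's. Barcoded error-prone PCR libraries were transcribed by T7 RNA polymerase (5 hours, 37°C) and held in DNase I for 15 min before an EDTA stop, with cleavage occurring throughout. Template-switching reverse transcription and Illumina sequencing were used to read the RNAs. A 5-read minimum applied, and results are the mean of three batches.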

Row | Variant | self-cleavage
1 | A3G A35U U51A U80C | 0.68
2 | A3G A35U U66C U67C | 0.44
3 | A3G A35U U69C | 0.37
4 | A3G A35U U78A | 0.8
5 | A3G A35U U78C U80A | 0.5
6 | A3G A45C U48C U66C | 0.23
7 | A3G A45C U72A | 0.55
8 | A3G A45G A47G U51A A56G A57G A75G | 0.3
9 | A3G A45G U49C U60C G70A U78C | 0.24
10 | A3G A45G U51C A56C A75G | 0.21
11 | A3G A45G U51C U66C A75U | 0.26
12 | A3G A45G U58A U67C | 0.13
13 | A3G A45G U60A | 0.4
14 | A3G A45G U72C | 1.07
15 | A3G A45G U78C | 0.61
16 | A3G A45U A57G U67C | 0.33
17 | A3G A45U U51A | 0.57
18 | A3G A45U U66G A75G | 0.24
19 | A3G A45U U72A | 0.23
20 | A3G A45U U78C U80A | 0.54
21 | A3G A47G A56U A64U | 0.31
22 | A3G A47G A56U U80C | 0.73
23 | A3G A47G A64G | 0.61
24 | A3G A47G A64U C68A | 0.14

Row | Variant | self-cleavage
25 | A3G A47G U48C U51C U76C U78C | 0.29
26 | A3G A47G U49C A57C | 0.71
27 | A3G A47G U49C U69G | 0.24
28 | A3G A47G U51A | 1.05
29 | A3G A47G U51A A56U A77G | 0.28
30 | A3G A47G U54A U72C | 1.25
31 | A3G A47G U58C U66C | 0.29
32 | A3G A47G U67C U72C | 0.35
33 | A3G A47G U67C U72C U76C | 0.23
34 | A3G A47G U69C U80C | 0.24
35 | A3G A47U U48C | 0.5
36 | A3G A47U U60C | 0.41
37 | A3G A47U U78C | 0.48
38 | A3G A47U U80C | 0.58
39 | A3G A56C G73A A75G U80C | 1.27
40 | A3G A56G A64G | 1.03
41 | A3G A56G C59U U69C | 0.15
42 | A3G A56G U60A | 0.68
43 | A3G A56G U69C G73A | 0.87
44 | A3G A56U A57G | 0.33
45 | A3G A56U A75G A77G U80A | 0.31
46 | A3G A56U U67C U74C | 0.17
47 | A3G A57C U66C | 0.72
48 | A3G A57C U69A | 0.23

Row | Variant | self-cleavage
49 | A3G A57C U80C | 0.52
50 | A3G A57G A64G A65G | 0.27
51 | A3G A57G A64U U66C | 0.31
52 | A3G A57G G63A A64U | 0.26
53 | A3G A57G U60C A64U U72C U78C U80A | 0.39
54 | A3G A57G U67C A75U | 0.38
55 | A3G A57G U69A C79U | 0.93
56 | A3G A57G U72C | 0.43
57 | A3G A57U U66A | 0.33
58 | A3G A64G C68A | 0.27
59 | A3G A64G U67A C79A | 0.3
60 | A3G A64G U67A U80A | 0.46
61 | A3G A64G U78A | 1.12
62 | A3G A64G U80A | 1.06
63 | A3G A64U U72G | 0.73
64 | A3G A65G U69A | 0.18
65 | A3G A65G U72A A75G | 0.83
66 | A3G A65G U80C | 0.64
67 | A3G A65U U72A | 0.44
68 | A3G A77U C81A | 1.24
69 | A3G C4A A15U U72C U80C | 1.16
70 | A3G C4A C44A | 0.64
71 | A3G C4A U26C A28U U43C U51C G55A | 0.33
72 | A3G C4G G9U | 0.13

Row | Variant | self-cleavage
73 | A3G C4U A13G A21G A45U U69A A75G | 0.44
74 | A3G C4U A13G U69A A75G | 0.41
75 | A3G C4U A15G G33A U41C G46U | 0.19
76 | A3G C4U A15G U41C G55U A77G | 0.62
77 | A3G C4U A21U U66A | 1.06
78 | A3G C4U A45U A56U U66A U76G | 0.16
79 | A3G C4U C29U | 0.41
80 | A3G C4U G8A A13U A28C A57G | 0.18
81 | A3G C4U G8A A35U U51C | 0.11
82 | A3G C4U G10A U78A | 0.47
83 | A3G C4U G73C | 1.18
84 | A3G C4U U25C G53A | 0.68
85 | A3G C4U U41A C71U | 0.12
86 | A3G C4U U41C U48C U66A U80C | 0.23
87 | A3G C4U U67A | 0.79
88 | A3G C11A A15U G19U A28U A47U U80C | 0.05
89 | A3G C11A A18U | 0.11
90 | A3G C11A C14U A56G A57G U69C U78A | 0.07
91 | A3G C11A U26C | 0.25
92 | A3G C11A U31C | 0.15
93 | A3G C11A U31C U49C U72C | 0.46
94 | A3G C11G A13G U25C U60C U74A | 0.03
95 | A3G C11G A18U U51C A64G | 0.11
96 | A3G C11G A21G A65G | 0.09

Row | Variant | self-cleavage
97 | A3G C11G A21U G36A U49C | 0.04
98 | A3G C11G A35G A56U U67C C71U C79A | 0.1
99 | A3G C11G C14G U26C U66C U80C | 0.05
100 | A3G C11G C40U G52A U80A | 0.11
101 | A3G C11G C62U U69C C79A | 0.08
102 | A3G C11G G16C A20G U43A U49C | 0.06
103 | A3G C11G G24A | 0.11
104 | A3G C11G U25C C44U U54A A77C U78C | 0.08
105 | A3G C11G U26A G30A | 0.08
106 | A3G C11G U26C | 0.45
107 | A3G C11G U41A U60A | 0.42
108 | A3G C11G U48G U80C | 0.13
109 | A3G C11G U69C | 0.12
110 | A3G C11U A13U U31A U41C U49C | 0.33
111 | A3G C11U C40U U43C | 0.06
112 | A3G C11U U43C A57G | 0.25
113 | A3G C11U U49C | 0.09
114 | A3G C12A A13G U54A | 1.07
115 | A3G C12A A13U C38G U49A A64U | 0.09
116 | A3G C12A A15C U25C A56U U67A U80C | 0.06
117 | A3G C12A A15C U43A U49C A56U G63A | 0.19
118 | A3G C12A A15G U31C U51A A75U | 0.6
119 | A3G C12A A18G A20G U78A U80C | 0.3
120 | A3G C12A A20G U76C | 1.03

Row | Variant | self-cleavage
121 | A3G C12A C23G A64G | 0.33
122 | A3G C12A C23G C32U | 0.32
123 | A3G C12A G30A U41C U49C U78C | 0.06
124 | A3G C12A U26C U31C A57G U72C | 0.35
125 | A3G C12G A13G G24A | 0.28
126 | A3G C12G A21G A35U U41C G53C G73A | 0.78
127 | A3G C12G A21G U51C C71G U78C | 0.07
128 | A3G C12G A45G U51C | 0.19
129 | A3G C12G C17G A20G G22U A28G | 0.09
130 | A3G C12G U54C A56G U78C | 0.43
131 | A3G C12G U78G | 0.4
132 | A3G C12U A13G A21G A64G A75U | 0.11
133 | A3G C12U A15U U54C | 1.22
134 | A3G C12U A15U U54C U80C | 1.27
135 | A3G C12U A20G C32A C40U C44G U60C | 0.06
136 | A3G C12U A21G U26C A64U | 0.12
137 | A3G C12U A21G U43A U49C U72A | 0.19
138 | A3G C12U A28G U31C U69C U76A | 0.36
139 | A3G C12U A45G A57G U67C | 0.44
140 | A3G C12U C17U A64G U72A | 0.13
141 | A3G C12U C79U | 1.25
142 | A3G C12U G19C | 0.47
143 | A3G C12U U25C U41A G70A | 0.09
144 | A3G C12U U25C U49C A65U | 0.05

Row | Variant | self-cleavage
145 | A3G C12U U26C A35U C37U | 0.11
146 | A3G C12U U26C U31A G61A | 0.15
147 | A3G C12U U31A U41A A45U C71A | 0.05
148 | A3G C12U U31C U49C U69C | 0.23
149 | A3G C12U U48A U74C | 1.18
150 | A3G C12U U58A A64G | 0.46
151 | A3G C14A A15U U67C | 0.29
152 | A3G C14A A18U A20U U26C U43C U80C | 0.05
153 | A3G C14A A56U | 1.06
154 | A3G C14A C62G | 0.24
155 | A3G C14A U41A A57G U80A | 0.06
156 | A3G C14G U49C G61A A77C U78C | 0.11
157 | A3G C14G U72G A75C U78C | 1.13
158 | A3G C14U A20U U60A | 0.12
159 | A3G C14U A21G U26A A57U U80A | 0.95
160 | A3G C14U A45G U48C A64U | 0.15
161 | A3G C14U A56U U60A | 0.26
162 | A3G C14U C62G U76C | 0.3
163 | A3G C14U U31C C40G G63A A64U | 0.06
164 | A3G C14U U41G A45G A47U U51A A64G | 0.31
165 | A3G C17A A18G C62A | 0.28
166 | A3G C17A A21G C62U | 0.31
167 | A3G C17A U25C A28U U31A A35G A45G | 0.06
